Paper PMC12136788
The list shows a part of the results.

T1: UNK ZnF1-3 (human, UniProt Q9C0B0 31-174)
T1 sequence: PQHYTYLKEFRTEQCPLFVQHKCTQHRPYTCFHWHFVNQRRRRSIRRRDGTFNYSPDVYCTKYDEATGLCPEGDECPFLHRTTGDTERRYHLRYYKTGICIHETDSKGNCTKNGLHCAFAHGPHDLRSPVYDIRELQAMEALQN

B1: chr19:16212804:16212805:+_ENSG00000167460_ENST00000300933|hu_mus|hu_hu_hu_mus_False|1_68 (ssRNA)
RNA: GGGAGUUCUACAGUCCGACGAUCAACAAUUCUGGAGUGAAGGAAAGAUGUAACAUGGAACAGCAUUCCAUCUAUUACAGAAGGCACAUGGGCAACAAUGAUCACCCCAGCAUUCUCGCUUGGAAUGCUUAAAGACAGAUGUUUCAACAGAGGAUUGAGCAUCA
B2: chr7:75932113:75932114:+_ENSG00000106211_ENST00000248553|hu_hu|hu_hu_hu_mus_False|88_88 (ssRNA)
RNA: GGGAGUUCUACAGUCCGACGAUCCUGCGACCACUCAUCGGGCAACCGGGGCAGCCCGAAAGCUUGAUCGAAGAGGCGGCUGUGUGCAGGGUACCAGUCCCGGAAUGGUUCCCAGCUCGGGCUCCGCAGCAGCGAGAAGGGCACCAACAGAGGAUUGAGCAUCA
B3: 112363417_112363537_2605_3pUTR_ENSMUSG00000074748_ENSMUST00000099276|mouse|control|control (ssRNA)
RNA: GGGAGUUCUACAGUCCGACGAUCACAGUCUCAAGGCUCAAGCACUAUAAUUGCCUCAACUCUUUGAGUAUAAUCCAAAUUAGUCCACACACUUCAAAUAGCUCCUGGGAGAAGGAAGAUACAUACACAAUAGGAUUAGAAAUGCAACAGAGGAUUGAGCAUCA
B4: chr5:15937888:15937889:+_ENSG00000183580_ENST00000504595|hu_hu|FALSE|FALSE (ssRNA)
RNA: GGGAGUUCUACAGUCCGACGAUCGCAGUGAAGUGCUUUGGCCAAGGUCAUAGUCAUUGACAGAGCUGGGGGAGGACUGCAUGUCCUUCCCCAGCUGUUUGCUGUAAUGAAUUUUUUAAAAAGGCCUGAAAAGUAUUUUGCCUACAACAGAGGAUUGAGCAUCA
B5: chr4:147379129:147379130:-_ENSMUSG00000029016_ENSMUST00000137724|mus_mus|motif|central (ssRNA)
RNA: GGGAGUUCUACAGUCCGACGAUCUGUCCUAGAGGAGCAUGGGCCAGGGUGGGUAUGCCUGGACCCUGUCCACUCUGGGCGGAACUGAUGGUCACACACACACACACACACACUCGAUGGACAAAUCACAACAGGACUGGCUUGCAACAGAGGAUUGAGCAUCA
B6: chr15:80081215:80081216:+_ENSMUSG00000022412_ENSMUST00000023048|mus_mus|FALSE|FALSE (ssRNA)
RNA: GGGAGUUCUACAGUCCGACGAUCCUCUGAUAAAACAGUUGCAGCCGGCGCCUCCAGUGUUGGUCAAUGCCCCGUCCCCACGAUCAAAAGCCUUAGCUCAGAUAAAGAGGAGUUGCUUAGGGUAGGGAGAGGAGAUAAGCUUGUCAACAGAGGAUUGAGCAUCA
B7: chr7:81084073:81084074:-_ENSMUSG00000025789_ENSMUST00000026896|mus_hu|FALSE|FALSE (ssRNA)
RNA: GGGAGUUCUACAGUCCGACGAUCAGGAUUUAAUCCAACAAACAUUUAUUGAGCAACUGCUGUGUGCUAUGCACCACGCCUAGUGCUGUGAUGGAUACAGAUGAAUAAAACACAGUCCCUGCCCUUGGCAAGCUUACAGUCUAACAACAGAGGAUUGAGCAUCA
B8: chr16:2814526:2814527:+_ENSG00000167978_ENST00000301740|hu_hu|FALSE|FALSE (ssRNA)
RNA: GGGAGUUCUACAGUCCGACGAUCCUCAGAAGAAAAUCCAGUAUUCAUUUCUGUACCAAGUGGGCCUGAGUUUCUAAAUUCUAAAGGUGAUCCAAAGCUGUUCUCCCUGAGUGGGGAGUUAGACAGUUCUUUAUGUUCUGGAGACAACAGAGGAUUGAGCAUCA
B9: chr1:95363388:95363389:-_ENSG00000117519_ENST00000538964|hu_mus|motif|central (ssRNA)
RNA: GGGAGUUCUACAGUCCGACGAUCCCGAGGGUAGUCGUCUGGGUACUCGCCAUGAUAUUCAUCGGGGUAUUCUGCCUGAUAAUCGCGGUCACUGAUUUCCGACCCAUUGGUGCCCGUGCCCUGGCUUCCGUUGUGAAUGACAGGCAACAGAGGAUUGAGCAUCA
B10: chr1:46159212:46159213:+_ENSG00000159596_ENST00000372025|hu_mus|hu_hu_hu_mus_True|1_38 (ssRNA)
RNA: GGGAGUUCUACAGUCCGACGAUCUCUGAUCCCUCCCAAGAAAGCUAGGAAACCGGCUCCAUAAGCCAUCUGAGUGAAAGCUAGGACGGGGAUAUAAGUUUUUGUCAUUACCAUGAGAAGUGGGGGAGCAGUAAAGGGGAUUAGCAACAGAGGAUUGAGCAUCA
B11: chr1:39494564:39494565:+_ENSG00000168653_ENST00000372967|hu_hu|hu_hu_hu_mus_True|18_58 (ssRNA)
RNA: GGGAGUUCUACAGUCCGACGAUCAUGCAUUCGCCUCAUCGUUUUGUACCGAAGCAAGCACUCUUCGAAGUCAUCGAAUUCUAUCUUGCACUCCUUUUUCGCCCGGGUCCCACCGAUUCCAUGUGCACACUCUAUCCACUCUUUCAACAGAGGAUUGAGCAUCA
B12: chr3:20019835:20019836:+_ENSG00000144566_ENST00000273047|hu_hu|motif|central (ssRNA)
RNA: GGGAGUUCUACAGUCCGACGAUCCAUGAAUAUUUCAUUUACAUUCAUUGAUGUUUUAGCGGAUGUCUCCAUGAAUAAUAAACGGUUGUCAUCUGCAUAGGACUGUGCUUCCUGGAAAUCUACUGCUCUUUUAUUUGCUAGGUCCAACAGAGGAUUGAGCAUCA
B13: chr17:62496344:62496345:-_ENSG00000108654_ENST00000581693|hu_mus|motif|central (ssRNA)
RNA: GGGAGUUCUACAGUCCGACGAUCCCCAAAAUCUCUCUUAAGCAGAUUAGAGUAGCCUCUGUCAUAGUUUUCCCUGUCUCGGAAGGUAUUAAAUCCACCCCUUUUGCCUGCAGAGUAUCUGUCACGACGAUCGUCCUUCAUGCCCAACAGAGGAUUGAGCAUCA
B14: 34166624_34166744_176_5pUTR_ENSMUSG00000024376_ENSMUST00000025234|mouse|control|control (ssRNA)
RNA: GGGAGUUCUACAGUCCGACGAUCCGUGGGGCGGAGCCCUGGGCGGGAGCAGCCCAGGUACAGCCAGCCCCGGCCCGGGGCGUCGGCAAAAGGCCUCGAAACUGAAGUAGGAGCCCCGGGACGGUGACCCGAGCGCCCCCCUUCCAACAGAGGAUUGAGCAUCA

Each binder was assayed against T1, UNK ZnF1-3 (assay: nsRBNS (natural sequence RNA bind-n-seq); RBNS binding buffer (assumed for nsRBNS): 25 mM Tris pH 7.5, 150 mM KCl, 3 mM MgCl2, 0.01% Triton X-100, 500 ug/ml BSA, 20 U/ml SUPERase-In, 4 C; UNK is unkempt and MSI1 is Musashi-1; names of the RNAs are library labels; protein concentration not given here; high values mean tight binding).
Binder B1 has a binding signal of 1.04 enrichment R. Binder B2 has a binding signal of 1.35 enrichment R. Work on B3 yielded a binding signal of 1.67 enrichment R. B4 was tested, and the binding signal was 0.88 enrichment R. B5 gave a binding signal of 1.43 enrichment R. For B6, the binding signal was 1.15 enrichment R. With B7 the binding signal was 1.2 enrichment R. B8 gave a binding signal of 1.14 enrichment R. With B9 the binding signal was 0.722 enrichment R. In the case of B10, the binding signal is reported as 2.07 enrichment R. For B11, the binding signal was 0.598 enrichment R. B12 was tested, and the binding signal was 0.589 enrichment R. B13 gave a binding signal of 0.883 enrichment R. B14 gave a binding signal of 0.519 enrichment R.
